Source: paper PMC2991254
Results are given in words; binding and its absence hold for the method and conditions named. Some binding calls cover weakened binding; strength is not graded here.

The chains behind the UniProt entries cited, without tags or fusion partners. Where a name states a change or a piece, a line headed by the entry shows the natural chain unless it says otherwise. A line that says so, or that is headed by a name, gives the form on record, which may keep a tag or linker.
UniProt P29386: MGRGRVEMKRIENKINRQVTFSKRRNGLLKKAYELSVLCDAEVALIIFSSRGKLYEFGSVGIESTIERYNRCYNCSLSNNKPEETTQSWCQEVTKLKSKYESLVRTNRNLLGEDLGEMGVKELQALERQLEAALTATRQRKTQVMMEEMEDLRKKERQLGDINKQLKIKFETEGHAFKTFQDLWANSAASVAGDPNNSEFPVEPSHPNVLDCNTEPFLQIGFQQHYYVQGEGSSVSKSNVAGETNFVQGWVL
UniProt Q9FIS1: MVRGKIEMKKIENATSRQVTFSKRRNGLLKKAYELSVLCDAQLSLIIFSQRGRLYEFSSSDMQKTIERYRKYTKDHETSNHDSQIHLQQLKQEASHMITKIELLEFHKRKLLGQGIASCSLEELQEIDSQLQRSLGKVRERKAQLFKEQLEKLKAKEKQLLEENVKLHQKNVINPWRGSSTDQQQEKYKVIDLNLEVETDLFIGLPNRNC
UniProt Q9SI38: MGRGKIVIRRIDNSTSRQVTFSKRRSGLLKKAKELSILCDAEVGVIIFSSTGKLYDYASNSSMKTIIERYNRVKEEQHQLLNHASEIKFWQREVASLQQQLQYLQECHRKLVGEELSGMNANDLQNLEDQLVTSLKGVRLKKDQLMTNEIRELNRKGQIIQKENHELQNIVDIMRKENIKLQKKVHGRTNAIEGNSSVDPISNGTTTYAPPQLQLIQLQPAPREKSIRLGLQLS
UniProt Q9S7Q7: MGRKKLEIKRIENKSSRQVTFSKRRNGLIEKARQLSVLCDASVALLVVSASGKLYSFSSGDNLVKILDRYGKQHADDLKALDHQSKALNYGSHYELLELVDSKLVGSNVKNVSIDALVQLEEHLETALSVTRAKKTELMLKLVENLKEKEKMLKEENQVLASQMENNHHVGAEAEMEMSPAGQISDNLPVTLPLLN
UniProt O82743: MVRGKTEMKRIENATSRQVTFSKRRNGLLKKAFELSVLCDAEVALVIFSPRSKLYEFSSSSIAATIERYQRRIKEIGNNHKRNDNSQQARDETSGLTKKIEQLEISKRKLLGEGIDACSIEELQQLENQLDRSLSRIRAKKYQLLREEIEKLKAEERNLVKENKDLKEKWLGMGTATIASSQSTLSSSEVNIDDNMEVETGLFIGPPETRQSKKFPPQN
UniProt Q9SZJ6: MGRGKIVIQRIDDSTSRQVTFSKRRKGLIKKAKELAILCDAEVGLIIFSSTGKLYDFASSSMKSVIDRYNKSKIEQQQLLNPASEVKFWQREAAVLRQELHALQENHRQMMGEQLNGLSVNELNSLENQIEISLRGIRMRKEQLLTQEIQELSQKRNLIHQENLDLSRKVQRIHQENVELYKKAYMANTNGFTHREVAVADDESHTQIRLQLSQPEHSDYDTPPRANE
UniProt P29381: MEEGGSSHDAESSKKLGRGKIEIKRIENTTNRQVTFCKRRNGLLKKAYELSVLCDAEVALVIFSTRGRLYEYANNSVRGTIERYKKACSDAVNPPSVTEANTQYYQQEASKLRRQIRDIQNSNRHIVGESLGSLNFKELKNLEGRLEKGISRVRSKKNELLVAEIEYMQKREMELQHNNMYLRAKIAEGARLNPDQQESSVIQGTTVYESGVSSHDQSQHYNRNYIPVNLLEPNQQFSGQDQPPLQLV
UniProt O82794: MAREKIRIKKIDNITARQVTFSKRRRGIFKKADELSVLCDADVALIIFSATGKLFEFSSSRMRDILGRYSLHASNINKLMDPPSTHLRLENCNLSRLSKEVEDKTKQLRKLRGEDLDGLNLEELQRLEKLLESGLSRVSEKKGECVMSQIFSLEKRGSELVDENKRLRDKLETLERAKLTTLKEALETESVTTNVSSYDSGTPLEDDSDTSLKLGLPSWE
UniProt Q9FPN7: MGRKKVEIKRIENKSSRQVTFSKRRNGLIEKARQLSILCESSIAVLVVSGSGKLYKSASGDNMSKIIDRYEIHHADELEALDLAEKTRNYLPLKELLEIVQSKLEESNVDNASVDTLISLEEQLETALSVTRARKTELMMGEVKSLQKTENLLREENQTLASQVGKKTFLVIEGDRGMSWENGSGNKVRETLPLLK
UniProt Q39081: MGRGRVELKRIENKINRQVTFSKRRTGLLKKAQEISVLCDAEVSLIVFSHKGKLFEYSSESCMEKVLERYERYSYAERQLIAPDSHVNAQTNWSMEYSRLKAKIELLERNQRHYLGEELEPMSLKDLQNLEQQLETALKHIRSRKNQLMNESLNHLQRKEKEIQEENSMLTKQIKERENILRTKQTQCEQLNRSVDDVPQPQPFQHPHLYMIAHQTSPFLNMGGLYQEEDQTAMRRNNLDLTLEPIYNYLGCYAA
SOC1 MQD62-64SIPK (O64645, form named): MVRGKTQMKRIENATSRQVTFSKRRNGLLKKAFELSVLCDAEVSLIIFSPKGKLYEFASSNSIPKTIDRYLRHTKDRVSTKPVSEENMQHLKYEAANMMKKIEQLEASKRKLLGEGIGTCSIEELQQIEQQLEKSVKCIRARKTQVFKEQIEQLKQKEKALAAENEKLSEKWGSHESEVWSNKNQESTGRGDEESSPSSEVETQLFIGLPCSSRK
UniProt P35631: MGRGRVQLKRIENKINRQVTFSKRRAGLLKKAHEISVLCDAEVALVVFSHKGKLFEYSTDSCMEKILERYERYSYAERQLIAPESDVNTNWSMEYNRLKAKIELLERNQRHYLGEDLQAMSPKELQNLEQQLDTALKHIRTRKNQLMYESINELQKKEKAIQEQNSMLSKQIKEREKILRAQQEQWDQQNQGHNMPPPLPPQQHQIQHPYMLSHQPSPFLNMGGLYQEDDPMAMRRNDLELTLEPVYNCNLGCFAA
AGL14 SIPK62-65MQD (Q38838, form named): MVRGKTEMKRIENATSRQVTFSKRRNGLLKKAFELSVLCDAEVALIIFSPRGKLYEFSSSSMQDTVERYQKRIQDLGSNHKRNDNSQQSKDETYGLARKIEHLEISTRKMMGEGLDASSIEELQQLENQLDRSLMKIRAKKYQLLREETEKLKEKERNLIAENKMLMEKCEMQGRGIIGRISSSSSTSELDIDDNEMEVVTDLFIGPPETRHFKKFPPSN

Experiments:
Assay in all cases: two-hybrid; matrix-based yeast two-hybrid, GAL4-AD and GAL4-BD fusions (pDEST22, pDEST32), in duplicate, at least two reporter genes; medium lacking Leu, Trp and His with 1 mM 3-amino-1,2,4-triazole, growth scored after 4 days at 20°C
[1] = molecular target: AGL6 (Arabidopsis thaliana) (UniProt P29386)
[2] = molecular target: AGL42 (Arabidopsis thaliana) (UniProt Q9FIS1)
[3] = molecular target: ANR1 (Arabidopsis thaliana) (UniProt Q9SI38)
[4] = molecular target: FLOWERING LOCUS C (Arabidopsis thaliana) (UniProt Q9S7Q7)
[5] = molecular target: AGL19 (Arabidopsis thaliana) (UniProt O82743)
[6] = molecular target: AGL21 (Arabidopsis thaliana) (UniProt Q9SZJ6)
[7] = molecular target: SHORT … PHASE (SVP1) (Arabidopsis thaliana) (UniProt Q9FVC1)
[8] = molecular target: T1, AGL71 (Arabidopsis thaliana) (UniProt Q9LT93)
T1 sequence: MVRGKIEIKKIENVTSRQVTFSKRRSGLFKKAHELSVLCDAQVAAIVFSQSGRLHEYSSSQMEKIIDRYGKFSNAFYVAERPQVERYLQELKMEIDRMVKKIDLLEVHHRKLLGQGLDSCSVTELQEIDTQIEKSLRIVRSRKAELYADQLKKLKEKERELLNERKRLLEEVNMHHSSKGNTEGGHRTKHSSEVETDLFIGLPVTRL

[9] = molecular target: …OOF1 (Arabidopsis thaliana) (UniProt P29381)
[10] = molecular target: T2, AGL13 (Arabidopsis thaliana) (UniProt Q38837)
T2 sequence: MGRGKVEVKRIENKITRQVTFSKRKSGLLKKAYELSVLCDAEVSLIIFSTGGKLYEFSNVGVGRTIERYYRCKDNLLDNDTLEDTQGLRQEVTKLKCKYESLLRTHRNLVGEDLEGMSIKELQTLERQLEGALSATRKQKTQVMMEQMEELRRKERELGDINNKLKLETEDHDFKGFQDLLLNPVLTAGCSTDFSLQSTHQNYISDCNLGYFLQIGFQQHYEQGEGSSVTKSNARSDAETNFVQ

[11] = molecular target: AGAMOUS-LIKE24 (Arabidopsis thaliana) (UniProt O82794)
[12] = molecular target: MADS … FLOWERING 2 (Arabidopsis thaliana) (UniProt Q9FPN7)

Substance | binding [1] | binding [2] | binding [3] | binding [4] | binding [5] | binding [6] | binding [7] | binding [8] | binding [9] | binding [10] | binding [11] | binding [12]
CAL N150Y (from UniProt Q39081 1-255) | no binding | binds | no binding | no binding | binds | no binding | binds | no binding | binds | binds | binds | no binding
CAL V66I (from UniProt Q39081 1-255) | no binding | no binding | no binding | no binding | no binding | no binding | binds | no binding | no binding | binds | binds | no binding
SOC1 MQD62-64SIPK (from UniProt O64645 1-214) | no binding | no binding | no binding | no binding | no binding | binds | binds | no binding | no binding | no binding | binds | no binding
AP1 I66V/Y148N (from UniProt P35631 1-256) | no binding | no binding | no binding | no binding | no binding | no binding | no binding | no binding | no binding | no binding | no binding | no binding
AGL14 SIPK62-65MQD (from UniProt Q38838 1-221) | no binding | no binding | binds | no binding | no binding | no binding | binds | no binding | no binding | binds | binds | no binding
SVP1 C58S (from UniProt Q9FVC1 1-240) | no binding | binds | no binding | binds | no binding | binds | no binding | no binding | binds | no binding | no binding | no binding
